Source: publication PMC10509304
Results are given in words; binding and its absence hold for the method and conditions named. In cells and extracts the contact can be indirect. Tags and fused reporters may be left off the sequences shown.

Tests used:
Assay in all cases: co-IP; transient co-expression in HEK293 cells; lysis in IP buffer (50 mM Tris/HCl pH 7.4, 150 mM NaCl, 4 mM EDTA) with 1% Brij-98; 3xFLAG-tagged tetraspanin precipitated with anti-FLAG M2 agarose overnight at 4°C; Western blot
[1] = target: T1, murine CD82 with C-terminal 3xFLAG epitope, transiently expressed in HEK293 (mouse) (UniProt P40237)
T1 sequence: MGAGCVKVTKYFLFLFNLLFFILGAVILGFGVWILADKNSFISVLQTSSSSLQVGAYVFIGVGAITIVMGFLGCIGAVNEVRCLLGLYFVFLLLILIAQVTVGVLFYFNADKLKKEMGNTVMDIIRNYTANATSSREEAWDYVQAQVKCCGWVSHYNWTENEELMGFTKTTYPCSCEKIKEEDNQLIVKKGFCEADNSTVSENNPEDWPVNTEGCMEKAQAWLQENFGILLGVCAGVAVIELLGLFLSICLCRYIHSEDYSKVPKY

[2] = target: T2, murine CD9 with C-terminal 3xFLAG epitope, transiently expressed in HEK293 (mouse) (UniProt P40240)
T2 sequence: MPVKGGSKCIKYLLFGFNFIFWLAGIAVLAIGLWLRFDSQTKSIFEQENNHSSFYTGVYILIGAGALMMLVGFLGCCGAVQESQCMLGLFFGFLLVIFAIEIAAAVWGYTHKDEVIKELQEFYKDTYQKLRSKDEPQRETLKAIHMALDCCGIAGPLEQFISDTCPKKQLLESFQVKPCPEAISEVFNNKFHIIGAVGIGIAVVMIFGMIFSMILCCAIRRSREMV

[3] = target: T3, murine CD81 with C-terminal 3xFLAG epitope, transiently expressed in HEK293 (mouse) (UniProt P35762)
T3 sequence: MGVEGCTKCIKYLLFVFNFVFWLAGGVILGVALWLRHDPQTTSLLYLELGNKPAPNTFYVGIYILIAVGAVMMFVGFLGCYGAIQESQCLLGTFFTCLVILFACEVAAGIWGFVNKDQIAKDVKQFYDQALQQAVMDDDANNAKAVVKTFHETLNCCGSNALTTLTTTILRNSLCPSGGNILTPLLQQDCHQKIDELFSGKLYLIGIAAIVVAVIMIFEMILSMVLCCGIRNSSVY

Measured: binding

endogenous epidermal growth factor receptor (EGFR) (from UniProt P00533 25-1210)
no binding: all assays above
